Assay results taken from PubChem BioAssay (NCATS).
The list shows a part of the results. Further columns of the screen follow, without active or inactive calls. For part of these data: Compounds called inactive in the main read-out are mostly missing here. Words in brackets tell the shape of the fitted curve; partial curves, single points and poor fits give uncertain potencies.

Key:
[1] = qHTS drug screen for cell cycle checkpoint inhibitors in PARPi-resistant BRCA-mutant ovarian cancer cell lines. (AID 1963452); conditions: PEO1/OlaR viability, CellTiter-Glo luminescence, 96 h
Outline: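 PEO1, PEO4 and PEO1/OlaR ovarian cancer cells, 600 per well, exposed 96 h at 37C to a dilution series. Viability read by CellTiter-Glo luminescence, normalized to DMSO and empty wells; activity summarized as Z-AUC.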

[2] = qHTS for identification of novel therapeutic agents for treatment of microphthalmiaassociated transcription factor (MiT) renal cell carcinoma (RCC) (AID 1963991); conditions: CellTiter-Glo, 48 h; for z-score: stronger effect = lower value;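 as to z-score: curves scaled with 100% = DMSO viability and 0% = empty wells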
Outline: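 UOK109/UOK124/UOK145 (TFE3 fusions, three partners); 500 cells/well; MIPE v4.0, 1912 cpds, 11 conc.; 48 h, 37 C; CellTiter-Glo, 15 min RT; lum. Norm.: DMSO 100%, empty 0%.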

[3] = measured here: PEO1 parental viability
[4] = TFE3-RCC UOK109 viability, measured here: UOK109 Z-AUC
[5] = TFE3-RCC viability, measured here: UOK124 Z-AUC
[6] = TFE3-RCC viability, measured here: UOK124 cell viability
[7] = TFE3-RCC viability, measured here: UOK145 Z-AUC
[8] = TFE3-RCC viability, measured here: UOK145 cell viability
Tags tell the direction and shape of the fitted curve.

SMILES | AC50 [1, 3] | AC50 ([1]; measured here: PEO4 viability) | z-score [2, 4] | z-score [2, 5] | AC50 [2, 6] | z-score [2, 7] | AC50 [2, 8]
OC(c1cc(C(F)(F)F)nc2c(C(F)(F)F)cccc12)C1CCCCN1 (configuration not stated) | 15.5 µM [falling, single point] | 27.5 µM [falling, single point] | -0.0523 | 0.217 | 29.6 µM [falling, partial curve] | -0.202 | 37.2 µM [falling, single point]
CCNC(=O)c1noc(-c2cc(C(C)C)c(O)cc2O)c1-c1ccc(CN2CCOCC2)cc1 | 0.0436 µM [falling, full curve] | 0.123 µM [falling, full curve] | -0.721 | -1.72 | 0.0935 µM [falling, partial curve, poor fit] | -1.47 | 0.264 µM [falling, full curve]
Nc1ncnc2c1nc(Cl)n2[C@@H]1O[C@H](CO)[C@@H](O)[C@@H]1O | 13.8 µM [falling, partial curve] | 5.49 µM [falling, full curve] | 0.358 | 0.474 |  | 0.372 | 26.4 µM [falling, single point]
O=c1cc(CN2CCOCC2)occ1OCCCCCSc1ccnc2cc(C(F)(F)F)ccc12 | 19.5 µM [falling, partial curve] | 27.5 µM [falling, single point] | 0.366 | 1.44 | 23.5 µM [falling, partial curve, poor fit] | -0.735 | 37.2 µM [falling, single point]
